# Data as given in the antibiotic and cytotoxicity screens of Wong et al. (2023).
# The other results are listed elsewhere or left out.
# How the values were obtained:
# HSkMC = human skeletal muscle cells; test: cytotoxicity call (relative viability < 0.9); conditions: 10 µM
# HepG2 = test: cytotoxicity call (relative viability < 0.9); conditions: 10 µM
# S. aureus RN4220 = test: growth inhibition call (relative growth <= 0.2); conditions: 50 µM
SMILES,cytotoxicity call (HSkMC),cytotoxicity call (HepG2),growth inhibition call (S. aureus RN4220)
CC12C=CC(=O)C=C1CCC1C3CC(O)C(O)(C(=O)CO)C3(C)CC(O)C12F (centres undefined),inactive,inactive,inactive
C[C@H](CO)N1C[C@H](C)[C@@H](CN(C)C(=O)Cc2ccncc2)Oc2cc(-c3cncnc3)ccc2S1(=O)=O,inactive,inactive,inactive
COc1ccc(CN2C[C@@H](C)[C@@H](OC)CN(C)C(=O)c3cc(NC(=O)c4nc5ccccc5s4)ccc3OC[C@H]2C)cc1,inactive,inactive,inactive
OC[C@@H]1CC[C@@H]2O[C@H](CCc3ccc(C#CCc4ccccc4)cc3)[C@H](n3cc(-c4ccccc4)nn3)C[C@@H]2O1,inactive,inactive,inactive
COc1ccc(NC(=O)Nc2ccc3c(c2)C(=O)N([C@@H](C)CO)C[C@H](C)[C@@H](CN(C)C(=O)NC2CCCCC2)OCCCC[C@H](C)O3)cc1,inactive,inactive,inactive
COc1ccc(NC(=O)Nc2ccc3c(c2)C(=O)N([C@H](C)CO)C[C@@H](C)[C@@H](CN(C)Cc2ccc4c(c2)OCO4)OCCCC[C@@H](C)O3)cc1,inactive,active,inactive
COCC(=O)N1C[C@@H](C)[C@@H](OC)CN(C)C(=O)c2ccc(NC(=O)c3ccc(F)cc3)cc2OC[C@@H]1C,inactive,inactive,inactive
NCCNC(=O)Cc1ccc(O)cc1,inactive,inactive,inactive
C[C@@H]1CCCCO[C@H](CN(C)S(=O)(=O)c2cn(C)cn2)[C@@H](C)CN([C@@H](C)CO)C(=O)c2cc(NC(=O)c3ccncc3)ccc2O1,inactive,inactive,inactive
CC(C)N1CCNCC1,inactive,inactive,inactive
COc1ccc(NC(=O)N(C)C[C@H]2Oc3ccc(NS(=O)(=O)c4cn(C)cn4)cc3C(=O)N([C@@H](C)CO)C[C@@H]2C)cc1,inactive,inactive,inactive
COc1cc(N)ccc1N1CCCS1(=O)=O,inactive,inactive,inactive
O=C1CCC(=O)N1CN1CCOCC1,inactive,inactive,inactive
CC(C)NC(=O)Nc1cccc2c1O[C@@H](CN(C)S(=O)(=O)c1ccc(Cl)cc1)[C@@H](C)CN([C@@H](C)CO)C2=O,inactive,inactive,inactive
COc1ccc(-c2cnc3c(c2)C(=O)N([C@@H](C)CO)C[C@@H](C)[C@@H](CN(C)C(=O)Cc2ccccn2)O3)cc1,inactive,inactive,inactive
CC[C@@]1(C)CC(=O)NC1=O,inactive,inactive,inactive
C[C@@H]1CCCCO[C@H](CN(C)C(=O)Nc2ccc(C(F)(F)F)cc2)[C@H](C)CN([C@@H](C)CO)C(=O)c2cc(NC(=O)Nc3ccc4c(c3)OCO4)ccc2O1,inactive,inactive,inactive
Cc1ccc(S(=O)(=O)N(C)C[C@H]2OCCCC[C@H](C)Oc3ccc(NC(=O)Nc4ccccc4)cc3C(=O)N([C@@H](C)CO)C[C@H]2C)cc1,inactive,inactive,inactive
C[C@H]1CN([C@@H](C)CO)C(=O)CCCn2cc(nn2)CO[C@@H]1CN(C)S(=O)(=O)c1ccc(Oc2ccccc2)cc1,inactive,inactive,inactive
COc1cccc(NC(=O)N[C@H]2CC[C@@H](CC(=O)N3CCN(C)CC3)O[C@H]2CO)c1,inactive,inactive,inactive

SMILES,cytotoxicity call (HSkMC),cytotoxicity call (HepG2),growth inhibition call (S. aureus RN4220)
NC(CO)(CO)CO.O=C(c1ccccc1)c1ccc2n1CCC2C(=O)O (centres undefined),inactive,inactive,inactive
Cc1ccc(S(=O)(=O)Nc2ccc3c(c2)C(=O)N([C@H](C)CO)C[C@H](C)[C@H](CN(C)CC2CCCCC2)OCCCC[C@H](C)O3)cc1,active,active,inactive
C[C@H]1CN([C@@H](C)CO)S(=O)(=O)c2ccc(C#Cc3ccccc3)cc2O[C@H]1CN(C)C(=O)CN(C)C,inactive,active,active
C[C@@H]1CN([C@@H](C)CO)C(=O)Cc2cc(NS(=O)(=O)c3cn(C)cn3)ccc2O[C@H]1CN(C)S(=O)(=O)c1ccc(Cl)cc1,inactive,inactive,inactive
C[C@@H]1CN([C@H](C)CO)C(=O)Cc2cc(NS(=O)(=O)c3cccs3)ccc2O[C@@H]1CN(C)C(=O)Nc1cccc2ccccc12,inactive,inactive,inactive
Cc1ccccc1-c1ncc(-c2ccc(Br)cc2)o1,inactive,inactive,inactive
C[C@@H]1CN([C@H](C)CO)C(=O)c2cc(NC(=O)C3CC3)ccc2O[C@H]1CN(C)S(=O)(=O)c1ccccc1,inactive,inactive,inactive
Fc1ccc(-c2nc3ccc4ccccc4c3c3c2CCC3)cc1,inactive,inactive,inactive
C=CCC[C@H](Cc1ccc(F)cc1)C(=O)OC[C@H](Cc1c[nH]c2ccccc12)NC(=O)[C@@H](CC=C)CC(=O)N[C@H](CO)Cc1ccccc1,active,active,inactive
Cc1noc(C)c1S(=O)(=O)N(C)C[C@H]1Oc2c(NC(=O)c3cnccn3)cccc2C(=O)N([C@@H](C)CO)C[C@H]1C,inactive,inactive,inactive
NC(=O)CCCCC(N)=O,inactive,inactive,inactive
C[C@@H]1CCCCO[C@H](CN(C)Cc2ccc(C(F)(F)F)cc2)[C@H](C)CN([C@H](C)CO)C(=O)c2cc(NS(C)(=O)=O)ccc2O1,inactive,inactive,inactive
O=C(C[C@H]1CC[C@@H](NC(=O)c2cnccn2)[C@H](CO)O1)NCc1ccccc1F,inactive,inactive,inactive
C[C@@H]1CCCCO[C@H](CN(C)S(=O)(=O)c2ccc(F)cc2)[C@@H](C)CN([C@H](C)CO)C(=O)c2cc(NC(=O)Nc3ccc(C(F)(F)F)cc3)ccc2O1,inactive,active,inactive
COc1ccc(S(=O)(=O)N(C)C[C@@H]2Oc3c(cccc3N(C)C)C(=O)N([C@@H](C)CO)C[C@H]2C)cc1,inactive,inactive,inactive
C[C@@H]1CN([C@H](C)CO)C(=O)Cc2cc(NC(=O)Nc3ccc(C(F)(F)F)cc3)ccc2O[C@@H]1CN(C)C(=O)Nc1ccccc1,inactive,inactive,inactive
CN(C)CCN1C[C@@H]2CN(C(=O)[C@H]3CCOC3)C[C@H]2C1=O,inactive,inactive,inactive
Cc1noc(C)c1S(=O)(=O)Nc1ccc2c(c1)CC(=O)N([C@@H](C)CO)C[C@H](C)[C@H](CN(C)S(=O)(=O)c1ccccc1)O2,inactive,inactive,inactive
O=C(C[C@H]1CC[C@@H]2[C@H](COC[C@@H](O)CN2C(=O)Nc2cccc(F)c2)O1)NCc1ccccc1Cl,inactive,inactive,inactive
Cc1ccc(S(=O)(=O)N(C)C[C@H]2Oc3c(NS(=O)(=O)c4ccccc4)cccc3C(=O)N([C@H](C)CO)C[C@H]2C)cc1,inactive,inactive,inactive

SMILES,cytotoxicity call (HSkMC),cytotoxicity call (HepG2),growth inhibition call (S. aureus RN4220)
CCOc1ccc2c(c1)-c1c(ssc1=S)C(C)(C)N2C,inactive,inactive,inactive
NC(=O)CC(N)C(=O)O.O (centres undefined),inactive,inactive,inactive
COCC#Cc1ccc2c(c1)O[C@@H](CN(C)C(=O)Nc1ccc(OC)cc1)[C@@H](C)CN([C@H](C)CO)S2(=O)=O,inactive,inactive,inactive
Cc1noc(C)c1NC(=O)N(C)C[C@@H]1OCCCC[C@@H](C)Oc2ccc(NC(=O)Nc3ccc(C(F)(F)F)cc3)cc2C(=O)N([C@@H](C)CO)C[C@H]1C,inactive,inactive,inactive
Cc1noc(C)c1NC(=O)N(C)C[C@@H]1Oc2ccc(NS(=O)(=O)c3c(C)noc3C)cc2CC(=O)N([C@@H](C)CO)C[C@H]1C,inactive,inactive,inactive
C[C@@H]1CCCCO[C@H](CN(C)C(=O)C2CCCCC2)[C@H](C)CN([C@H](C)CO)C(=O)c2cc(NC(=O)NC3CCCCC3)ccc2O1,inactive,inactive,inactive
CCCNC(=O)[C@@]1(Sc2ccc(C)cc2)CC(=O)N(Cc2cc(C(F)(F)F)cc(C(F)(F)F)c2)[C@@H]1c1ccc(CO)cc1,inactive,inactive,inactive
CCCC#Cc1cnc2c(c1)C(=O)N([C@@H](C)CO)C[C@@H](C)[C@H](CN(C)S(=O)(=O)c1cccc(OC)c1)O2,inactive,inactive,inactive
CN1CCN(C(=O)C[C@H]2CC[C@H]3[C@@H](COC[C@H](O)CN3C(=O)Nc3cc(Cl)cc(Cl)c3)O2)CC1,inactive,inactive,inactive
CN(C)CCCCNC(=O)[C@H]1C[C@H]2C(=O)N[C@@H](CCCCN(C)C)C(=O)N2[C@H]1c1cccc(OCCO)c1,inactive,inactive,inactive
C[C@@H]1CCCCO[C@@H](CN(C)C(=O)Nc2ccc(C(F)(F)F)cc2)[C@@H](C)CN([C@H](C)CO)C(=O)c2cc(NC(=O)C3CCCCC3)ccc2O1,inactive,inactive,inactive
COc1ccc(CN(C)C[C@@H]2OCCCC[C@H](C)Oc3ccc(NS(=O)(=O)c4ccc(OC)cc4)cc3C(=O)N([C@H](C)CO)C[C@@H]2C)cc1,inactive,inactive,inactive
CCOc1ccc(NC(C)=O)cc1,inactive,inactive,inactive
Cc1ccc(CNc2ccccn2)o1,inactive,inactive,inactive
C[C@H]1CN([C@@H](C)CO)C(=O)CCCn2cc(nn2)CO[C@H]1CN(C)S(=O)(=O)c1ccc2c(c1)OCCCO2,inactive,inactive,inactive
N[C@@H](CCC(=O)N[C@@H](CCS[C@@H](CC(=O)O)C(=O)O)C(=O)NCC(=O)O)C(=O)O,inactive,inactive,inactive
Cc1noc(C)c1NC(=O)Nc1cccc2c1O[C@H](CN(C)S(=O)(=O)c1cn(C)cn1)[C@@H](C)CN([C@H](C)CO)C2=O,inactive,inactive,inactive
C[C@@H]1CN([C@H](C)CO)C(=O)Cc2cc(NC(=O)Cn3cnnn3)ccc2O[C@H]1CN(C)Cc1ccc(C(F)(F)F)cc1,inactive,inactive,inactive
